Measurements as given in article PMC8421406, “C9orf72-derived arginine-rich poly-dipeptides impede phase modifiers” (Nature Communications, 2021).
No constants are given. Whether binding was seen depends on the method and setting. For some of these results: In cells and extracts the contact can be indirect. Some entries that bind do so weakly or less than the wild type. Tags and fused reporters may be left off the sequences shown.

Chains of the proteins cited; added tags and fusions are not shown. Residues count along the entry.
UniProt P02769, residues 25-607: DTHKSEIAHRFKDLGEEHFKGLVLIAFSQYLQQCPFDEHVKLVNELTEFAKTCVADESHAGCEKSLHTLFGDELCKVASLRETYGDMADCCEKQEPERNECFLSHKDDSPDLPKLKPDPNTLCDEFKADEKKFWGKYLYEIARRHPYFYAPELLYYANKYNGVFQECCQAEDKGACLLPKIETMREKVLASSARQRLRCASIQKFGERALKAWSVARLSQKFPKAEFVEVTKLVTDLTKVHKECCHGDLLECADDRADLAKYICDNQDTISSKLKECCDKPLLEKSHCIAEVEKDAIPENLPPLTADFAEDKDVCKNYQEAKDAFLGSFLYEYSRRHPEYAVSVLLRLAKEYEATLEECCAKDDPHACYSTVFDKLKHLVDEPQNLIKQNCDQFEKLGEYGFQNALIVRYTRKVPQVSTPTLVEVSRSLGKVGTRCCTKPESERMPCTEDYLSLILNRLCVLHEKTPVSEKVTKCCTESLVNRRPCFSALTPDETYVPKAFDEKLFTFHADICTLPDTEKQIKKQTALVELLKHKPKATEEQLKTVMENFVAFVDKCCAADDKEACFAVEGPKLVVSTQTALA
UniProt Q92973: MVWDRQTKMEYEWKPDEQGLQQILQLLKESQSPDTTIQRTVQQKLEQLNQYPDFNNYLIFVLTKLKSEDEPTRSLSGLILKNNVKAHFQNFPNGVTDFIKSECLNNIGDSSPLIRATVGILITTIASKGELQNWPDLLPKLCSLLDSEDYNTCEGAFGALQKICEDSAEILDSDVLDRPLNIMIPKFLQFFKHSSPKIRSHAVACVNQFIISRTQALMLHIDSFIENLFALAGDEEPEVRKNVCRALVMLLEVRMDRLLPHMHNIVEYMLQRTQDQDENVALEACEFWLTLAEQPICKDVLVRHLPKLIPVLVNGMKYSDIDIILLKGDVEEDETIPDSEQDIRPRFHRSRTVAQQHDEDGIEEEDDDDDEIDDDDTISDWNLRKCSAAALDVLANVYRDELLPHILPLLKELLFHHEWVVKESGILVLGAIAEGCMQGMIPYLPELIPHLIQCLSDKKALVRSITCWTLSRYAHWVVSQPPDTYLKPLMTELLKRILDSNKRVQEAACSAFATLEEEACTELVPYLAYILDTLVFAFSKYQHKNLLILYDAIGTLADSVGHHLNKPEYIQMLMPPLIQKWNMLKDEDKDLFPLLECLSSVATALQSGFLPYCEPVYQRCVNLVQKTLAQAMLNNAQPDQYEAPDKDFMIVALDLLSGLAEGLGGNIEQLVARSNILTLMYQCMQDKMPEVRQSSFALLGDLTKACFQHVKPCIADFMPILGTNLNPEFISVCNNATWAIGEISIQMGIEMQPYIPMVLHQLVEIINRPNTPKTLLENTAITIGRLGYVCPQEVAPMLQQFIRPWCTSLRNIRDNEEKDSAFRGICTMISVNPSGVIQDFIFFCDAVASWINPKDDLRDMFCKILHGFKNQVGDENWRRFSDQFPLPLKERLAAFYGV

How the values were obtained:
[1] = target: T1, GST:PR18 (Glutathione S-transferase fused to 18 repeats of Pro-Arg); test: pull-down; 4 µg GST protein immobilized on 30 µL GSH sepharose beads, incubated with equal molar protein 20–30 min, washed three times; 20 mM HEPES pH 7.4, 150 mM NaCl, 10% glycerol, 2 mM Mg(OAc)2, 2 mM DTT; SDS-PAGE, Coomassie; both purified
T1 sequence: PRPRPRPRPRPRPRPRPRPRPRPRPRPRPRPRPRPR

[2] = target: T2, Glutathione S-transferase (GST):PR18; test: pull-down; 4 μg GST protein immobilized on 30 μL GSH sepharose beads, incubated with equal molar protein for 20–30 min, washed three times; 20 mM HEPES pH 7.4, 150 mM NaCl, 10% glycerol, 2 mM Mg(OAc)2, 2 mM DTT; SDS-PAGE, Coomassie; both purified
T2 sequence: T1 sequence

HA:SBP:GFP:PR20:HA = target: T3, HA:SBP:GFP:PR20:HA; test: co-IP; HeLa cytosol extracts of cells transfected with HA:SBP:GFP:PR20:HA, mixed with Streptavidin Mag Sepharose at 4 °C overnight, washed five times with CE buffer; blot with anti-Kapβ2 and anti-HA
T3 sequence: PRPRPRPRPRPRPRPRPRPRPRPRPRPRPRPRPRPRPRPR

binding [1]	binding [2]	binding (HA:SBP:GFP:PR20:HA)	Substance
no binding	no binding	–	BSA (from UniProt P02769 25-607)
no binding	no binding	–	Lysozyme (from UniProt P00698 19-147) (enzyme)
–	–	binds	endogenous Kapβ2 (from UniProt Q92973 1-898) (receptor)
binds	binds	–	karyopherin-β2 (Kapβ2) (from UniProt Q92973 1-898) (receptor)
